Laboratory results taken from patent US20170320848A1, “COMPOUNDS FOR USE IN ANTHELMINTHIC TREATMENT” (Bayer Animal Health GMBH, priority 2014, published 2017).
Some of these results come from one statement about several compounds together.

Assays:
Assay type in all cases: cell-based
[1] = system: Dirofilaria immitis microfilariae
Cooperia curticei = Cooperia curticei assay (COOPCU), larval mortality; conditions: application rate 20 ppm, after 5 days
Procedure: Cooperia Curticei—Assay (COOPCU)
(§1) Solvent: dimethyl sulfoxide
(§2) To produce a suitable preparation, 10 mg of active compound are dissolved in 0.5 ml solvent, and the concentrate is diluted with “Ringer's solution” to the desired concentration.
Approximately 40 nematode larvae (Cooperia curticei) are transferred into a test tube containing the compound solution.
After 5 days percentage of larval mortality is recorded. 100% efficacy means all larvae are killed; 0% efficacy means no larvae are killed.

Haemonchus contortus = Haemonchus contortus assay (HAEMCO), larval mortality; conditions: application rate 20 ppm, after 5 days
Procedure: Haemonchus Contortus—Assay (HAEMCO)
as §1, §2
Approximately 40 larvae of the red stomach worm (Haemonchus contortus) are transferred into a test tube containing compound solution.
After 5 days percentage of larval mortality are recorded. 100% efficacy means all larvae are killed, 0% efficacy means no larvae are killed.

Structure (SMILES) | EC50 (reduction of motility) [1] | activity (percentage of larval mortality) (Cooperia curticei) | activity (percentage of larval mortality) (Haemonchus contortus)
O=C(NCC(F)(F)c1ccc(-c2ccc(Cl)cc2)cc1Cl)c1ccccc1C(F)(F)F [Example 1] | < 1 ppm |  | 
O=C(NCC(F)(F)c1ccc(-c2ccccc2)cc1Cl)c1ccccc1C(F)(F)F [Example 2] | < 1 ppm |  | 
O=C(NCC(F)(F)c1ccc(-c2ccc(F)cc2)cc1Cl)c1ccccc1C(F)(F)F [Example 3, N-[2-[2-chloro-4-(4-fluorophenyl)phenyl]-2,2-difluoro-ethyl]-2-(trifluoromethyl)benzamide] | < 1 ppm |  | 
O=C(NCC(F)(F)c1ccc(-c2ccc(OC(F)(F)F)c(F)c2)cc1Cl)c1ccccc1C(F)(F)F [Example 106] |  | 100% | 100%
N#Cc1cc(-c2cc(F)c(F)c(F)c2)ccc1C(F)(F)CNC(=O)c1ccccc1C(F)(F)F [Example 107] |  | 100% | 90%
O=C(NCC(F)(F)c1c(F)cc(-c2cc(F)c(F)c(F)c2)cc1F)c1ccccc1C(F)(F)F [Example 108] |  | 100% | 100%
Cc1cc(-c2cc(F)c(F)c(F)c2)ccc1C(F)(F)CNC(=O)c1ccccc1C(F)(F)F [Example 109] |  | 100% | 100%
O=C(NCC(F)(F)c1ccc(-c2cc(F)c(Cl)c(F)c2)cc1Cl)c1ccccc1C(F)(F)F [Example 110] |  | 100% | 100%
O=C(NCC(F)(F)c1ccc(-c2cc(F)c(F)c(F)c2)cc1Cl)c1nccnc1C(F)(F)F [Example 111] |  | 100% | 100%
O=C(NCC(F)(F)c1ccc(-c2cc(F)c(F)c(F)c2)cc1Cl)c1ncccc1C(F)(F)F [Example 112] |  | 100% | 100%
O=C(NCC(F)(F)c1ccc(-c2cc(F)c(F)c(F)c2)cc1Cl)c1ccccc1I [Example 114] |  | 100% | 100%
O=C(NCC(F)(F)c1ccc(-c2cc(F)c(F)c(F)c2)cc1Cl)c1ccccc1Cl [Example 115] |  | 100% | 100%
O=C(NCC(F)(F)c1ccc(-c2cc(F)c(F)c(F)c2)cc1Cl)c1ccccc1Br [Example 116] |  | 100% | 100%
O=C(NCC(F)(F)c1ccc(-c2cc(F)c(F)c(F)c2)cc1Cl)c1c(F)cccc1F [Example 117] |  | 100% | 100%
Cc1cc(-c2ccc(F)cc2F)ccc1C(F)(F)CNC(=O)c1ccccc1C(F)(F)F [Example 119] |  | 100% | 90%
Cc1cc(-c2ccc(F)c(F)c2)ccc1C(F)(F)CNC(=O)c1ccccc1C(F)(F)F [Example 120] |  | 100% | 90%
Cc1cc(-c2ccc(Cl)c(Cl)c2)ccc1C(F)(F)CNC(=O)c1ccccc1C(F)(F)F [Example 122] |  | 100% | 100%
Cc1cc(-c2cccc(Cl)c2)ccc1C(F)(F)CNC(=O)c1ccccc1C(F)(F)F [Example 123] |  | 100% | 100%
Cc1cc(-c2cccc(F)c2F)ccc1C(F)(F)CNC(=O)c1ccccc1C(F)(F)F [Example 127] |  | 100% | 100%
Cc1cc(-c2cc(Cl)c(F)c(Cl)c2)ccc1C(F)(F)CNC(=O)c1ccccc1C(F)(F)F [Example 128] |  | 100% | 100%
